Publication PMC10668032
The other results are listed elsewhere or left out. At the low end of the ranking the order means little.

Molecular target: SIX1-Q177R homeodomain (UniProt Q15475)
Test: universal protein binding microarray
Conditions: Universal all-10-mer PBM (8x60K, AMADID 030236), 300 nM GST-tagged protein, Alexa Fluor 488 anti-GST; buffer, salt, pH and temperature not stated; high values mean tight binding; most listed sequences are background and not binding sites; double strand, one strand shown

Sequence | binding signal [E-score]
AACTAAGA | 0.0623
GCACGGGC | 0.0283
GCCGATGA | -0.181
TCTCTGCA | -0.124
AATCCGGG | 0.113
AGCCCCTC | -0.0226
GAGGGGAC | 0.2
AGCTCAAT | -0.179
TTTGCAAA | -0.0796
CCGGTCCC | 0.0295
GACATGGA | -0.171
GGGCGGAA | -0.198
CTAAGCGA | -0.232
CGTTCGTA | -0.199
ATCCATTA | 0.0357
GATCTCCA | -0.124
CGTGCGAG | 0.0597
ATAACCGA | -0.184
GGCAAATA | -0.0796
CTGGAATC | 0.0456
ATAGGACG | -0.118
AACTCACG | -0.31
AATCACTG | -0.036
CGTGATCC | 0.195
TCAAGGGA | -0.087

Sequence | binding signal [E-score]
CCATCGTC | -0.239
CAATCTGC | -0.158
AGTCTAAA | -0.0748
AGGGTAAC | 0.176
TACTAGCA | -0.0346
ATTTCCGA | -0.218
TCTGGTAA | 0.0759
AGAGACAA | -0.251
ATGCTCAA | -0.251
CAGATAAA | -0.0842
GGCTACCC | 0.0413
CTGTTAGC | -0.201
CCAGCGCC | -0.222
ATTGAACC | 0.0239
ACAATACC | 0.0413
ACAGCCCC | -0.0608
GGTTAAAC | 0.183
AGACTCCA | 0.0586
AGCTGATG | -0.0132
ACTCGTGA | -0.0304
TATGTGCA | -0.121
AGTGTCGG | 0.421
CAGGTCGC | -0.0369
ATAATATC | -0.192
AGTCTCAT | -0.0975

Sequence | binding signal [E-score]
AGCGGATG | 0.00573
AAAAGTTG | -0.182
AGTTACCC | 0.146
AGGGATTG | -0.109
TGGCGCAA | -0.101
ATTGAACG | -0.117
TACTAGAA | -0.0104
TAAGACAA | -0.0768
GCATGAAA | -0.148
GGAGCCAC | -0.0346
CGCGGCAA | -0.079
GCTCCTAC | 0.0432
TGCATCAA | -0.221
CCTGTTGA | 0.0114
CTAGATAG | -0.0228
CCAGTTGA | 0.0417
ACAGGCCT | -0.213
CCGATAGA | -0.0393
CAACCGAC | 0.00271
AACAGCCA | -0.0975
AATCCCTA | -0.034
AAGAAACT | -0.222
AGACAGCT | -0.31
CCTGTCAA | 0.00171
GCCTGGAC | 0.0343

Sequence | binding signal [E-score]
GGTCGGAA | 0.17
AAAGGGTC | 0.136
CAATGGCG | 0.00487
AAGGATGT | -0.119
TACATCAA | 0.0509
CTACCCAA | 0.00863
CGGTCCAG | -0.0927
AAGACATT | -0.231
CCTTCTAG | -0.094
CAGCCCTA | 0.03
CGATTAGC | -0.192
ATGCGCAC | 0.0353
AAGGTCAT | -0.0714
CGTGTAAA | 0.435
ACCATGTA | -0.0407
GGGTACCA | 0.129
GATTTTGA | -0.0961
GCCGACGA | -0.127
AATATTGT | -0.244
AGCACAGC | -0.118
CAAATACA | 0.0732
CCTCATAC | 0.0375
CAGCTGCG | -0.165
ATCTTTTA | -0.194
ATGACCTA | -0.16

Sequence | binding signal [E-score]
CAGAAAAC | -0.0387
CCATTCCA | 0.0775
AGACGGTC | -0.101
ACGCTTGG | 0.00936
GCGGTTCC | -0.0635
AGGAAGAC | -0.0588
ATTAAGTC | -0.0372
GAGGCATA | -0.142
ACAGCGTG | 0.0831
GAAGCCTC | -0.0815
ACCACCAT | 0.0308
ATTGATAC | 0.196
ATGTGAAT | -0.166
GGGCGTCA | 0.137
GCTATTGA | -0.014
ATTCGCGC | -0.137
AGAATCAT | -0.209
AGTCATGC | -0.0902
CTATGGTA | 0.0827
GTCGGGTA | 0.221
GATTTGGC | -0.179
ATTCACTC | 0.151
GATACTAC | 0.183
AGTCTTGG | -0.0401
AGGGGGTG | 0.396

Sequence | binding signal [E-score]
CCGTCCCA | -0.0798
ACAGAGGT | 0.156
ATAAACAA | -0.2
CCTGACCC | 0.159
TTAAAAAA | -0.262
CTTGGTAC | -0.051
AATATCCA | -0.088
CCATGTCA | -0.0217
CATTCCGC | -0.0898
ATTAGTCA | -0.147
ATGACGAG | -0.094
ATACAATC | -0.173
CGGGTCGC | 0.189
GAGGTGAC | 0.0284
GGAGTCAC | 0.333
AGCTCAGC | -0.279
CTTTCGCC | -0.214
TGACTAAA | -0.252
AGACGCAG | 0.00415
TCGTAAAA | -0.174
AATAGGGT | 0.0772
CGAGCCTC | -0.171
CCATTGAG | -0.174
CTTCACTC | -0.0294
ACGACGTA | -0.0132

Sequence | binding signal [E-score]
GTTACCCA | 0.0576
CGAGACAA | -0.0377
AAACTACA | 0.184
TACTCAAA | -0.0458
AGTTTGTC | -0.271
CCCGCATC | 0.0395
ACACATTA | 0.034
CAAAACTC | -0.0238
CATGATCG | -0.141
ATGTTGGG | -0.00551
CAAGAATC | -0.0891
GATCCATC | 0.00879
GCCACAAC | 0.144
CAGTTGCC | -0.145
AATTGTAT | -0.115
CAAATTGG | -0.0497
AGCAATAG | 0.0261
GTCGACGA | -0.0953
GTAGGTAA | 0.0856
AGCGCCGG | -0.145
AAATCGAT | -0.225
AACCTAAC | -0.0407
AGCCCGCC | 0.0209
AACCGGGT | 0.218
ATGTGGAG | 0.0441

Sequence | binding signal [E-score]
CGTGTGAC | 0.304
CAATATCC | 0.0119
CCGATTGC | -0.041
TACCGCGA | 0.0762
ACGTGCTA | 0.0141
CCGTCTAA | 0.149
ACCCAGAG | 0.0892
TAAAAAAA | -0.201
AAATAAAC | -0.196
AGAAATGA | -0.312
GAACGGGC | -0.144
CTCGGCCC | -0.179
CATCGATG | -0.0458
AATTCCGT | -0.0976
ACCGTCCG | -0.0386
GACATATC | -0.147
AGCGTGGC | -0.23
AGAGCGAC | 0.0604
CCTCATGC | 0.0961
CACGCATA | 0.271
GCGTTAAA | -0.12
CGAAGGTC | -0.244
AACTAGGT | 0.0539
GTTAACGA | 0.0384
ACTAATCA | 0.0482

Sequence | binding signal [E-score]
AATGATAT | -0.151
AGTGAGCC | 0.00303
AAGAGGGA | -0.109
AGATCTAG | -0.212
TATAAAGA | -0.225
AGTCGATA | -0.0922
GCTAGAGA | -0.276
GGAGTAGA | 0.22
CCAACTCA | 0.0184
GCCAGGCA | -0.143
GATACATA | 0.084
AACAGGCC | -0.175
CGGTAATA | -0.0398
GCAGAGTA | 0.0174
ACCATCTA | 0.0926
TCAGAACA | 0.228
ACAAGTAC | 0.0232
ATAAGCTG | -0.0626
ACAATCAC | -0.129
ACCAGCGT | 0.13
AAATGAAA | -0.133
AGCCTGGC | -0.175
GCCCGCAA | 0.0243
CAGCTCGG | 0.114
AGGTAAGA | -0.0993

Sequence | binding signal [E-score]
AGCGATCG | -0.16
CTCTGTAA | -0.0782
CTCATCCA | 0.0704
CTGTACGA | -0.156
CCTCTTAC | -0.0926
AATATTAT | -0.0662
AAGCTGTC | -0.177
CATCCGGG | 0.156
AGACTGCT | -0.0959
GCGCTTCC | -0.206
GCCAAGAA | -0.163
TACAACCA | -0.0582
AACCTGCG | -0.00114
CTCGCCGC | 0.0626
GCCCCAGC | -0.0349
ACTAGCTA | -0.0861
CCAGAACC | -0.0998
ATAACCAT | -0.299
CATTCAGA | -0.0783
CCGGCGTC | 0.0885
GGCTGGCA | -0.161
GCCGTAAA | -0.127
CATATCCC | -0.0212
ACGTAAAG | -0.0942
GGACTTTA | -0.0833

Sequence | binding signal [E-score]
GGGCTTGA | -0.083
AACGTAAG | -0.171
GTGTCCCA | 0.442
AACGTAAA | -0.0791
ATCTGAAC | -0.0714
ACATATGT | -0.0457
GCCGAGGA | 0.0534
CATTTCCG | 0.047
ACGCCGGC | 0.0728
ACAAGTAG | 0.1
GGTGCTTA | 0.234
ATAGGCGG | 0.143
AATGTGCC | -0.106
CGTCGGCA | -0.108
ACTGCTTG | -0.00639
GCGAAAAA | 0.0387
ACTGGTTG | 0.0312
TCAGAAGA | -0.207
ACGTCGCA | -0.192
ACCCTTAT | 0.0222
TCGCAAAA | -0.179
ATCGTTCA | -0.115
CACTTACG | 0.206
CGCTGTAC | -0.0173
ACTAATGG | -0.113

Sequence | binding signal [E-score]
GCGATCTA | -0.0946
CAATTAGA | -0.0183
GCTTGTGA | -0.117
ACACCACA | 0.485
ATACCTCA | 0.0988
AACCAAGG | -0.132
ACGATCCA | -0.0648
GACGTGGC | -0.189
CGGGAACA | 0.157
TAGCCACA | -0.15
CGTGACCA | -0.145
CACAAGTG | 0.143
GGCCAATA | -0.156
GGGCCACA | -0.0947
CGCTCGGC | 0.00844
CTGAGCTA | -0.106
CCAAGAAG | -0.0292
CACTACAC | 0.443
GGAGTCTA | 0.0319
CTCGCGAC | -0.0305
ACTTAATC | -0.164
ACTTAGCT | -0.0483
GTCCATAA | -0.0731
CGATCACA | -0.0285
ACAAACAC | 0.379

Sequence | binding signal [E-score]
AACGGCAA | -0.16
ACCCTATG | 0.095
CACTCATA | 0.195
CAAAACGC | -0.0985
GCCTATAA | 0.0766
ACTCCACC | 0.275
CATTTGCC | 0.00044
AACTGCAC | -0.0163
ACCTGTCC | -0.123
TCTTGGAA | -0.0846
AGGCGAAA | -0.157
ATCGGTTG | -0.113
CGATGGCA | -0.132
CGCTTGTC | -0.202
AGTATGGG | 0.0865
GTTTCATA | -0.137
TCCAAGAA | -0.241
AATTCATA | -0.207
TCTTAGAA | -0.201
AAATTAGT | -0.0802
CAATTTCC | -0.0459
CGCGGACC | -0.0694
CGAATACG | 0.0509
CTGCTTTA | -0.163
CCAGGTAC | 0.201

Sequence | binding signal [E-score]
CGTCAGTC | -0.149
GTTGACTA | -0.0467
GCATTTAA | -0.251
CTCATTCC | 0.0882
ATCCTGGG | 0.0475
AAGTGTCT | 0.346
CGCGAGCC | -0.124
GCAGAAGA | -0.227
GCCACCTA | -0.0448
CGATTAGA | -0.0537
AGGACTCG | -0.0146
GGAGTTGA | -0.0176
AGTGGAAT | -0.145
AAAAAAGT | 0.0167
CTATCAGC | 0.0313
ATCCAACC | -0.0171
CGAGTCTA | -0.0154
AGTGATCC | 0.184
GACTAAGC | -0.288
